# Results reported in PubChem BioAssay AID1508642 (National Center for Advancing Translational Sciences (NCATS), 2021).
# Among all 43,000 compounds or so, about 200 (0.47%) were called active. Not shown: some 12% with an inconclusive outcome. Calls come from the whole dose curve; as a rule, active = well fitted cell-killing curve with a large enough effect; inconclusive = small, poorly fitted or top-dose-only effect, or effect the other way; inactive = flat fitted curve, though single readings scatter. The list shows a part of the results.
# Experiment: Cell viability qHTS assay in S16 Pmp22-F2sN cells; note: nearly all actives have a fitted effect of over 65% in size
# Settings: S16 Pmp22-F2sN Schwann cells (luciferase reporters placed in the Pmp22 gene) viability, CellTiter-Glo, 24 h; series mostly up to 57.5 µM; activity change, negative = cytotoxicity: at the top concentration
# Method in brief: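 S16 Schwann cells carrying the Pmp22-F2sN reporter, seeded in 1536-well format, were exposed to library compounds for 24 h at 37C. Viability was read as CellTiter-Glo luminescence after 15 min at room temperature.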
# % is set by controls: 0 for no effect and ±100 for the full control effect; potency is the fitted concentration of half-maximal effect.
Compound,"activity change, negative = cytotoxicity",Potency
CCOC(=O)c1nnn(CC(=O)NC(=O)Nc2ccccc2F)c1C(=O)OCC,inactive: -3.12%,
CCCCSc1nnc2[nH]c(=O)cc(C)n12,inactive: -8.69%,
O=C(c1cc(-c2ccc(Br)cc2)n[nH]1)N1CCN(S(=O)(=O)c2ccc(Br)s2)CC1,inactive: -12.1%,
COc1ccc(-c2cn3c(n2)sc2cc(C(=O)Nc4ccc(F)cc4)ccc23)cc1,inactive: 11.8%,
CC(=O)N1CCC2(CC1)OC(=O)C(C)=C2C(=O)NCc1ccccc1Cl,inactive: 5.24%,
CC(=O)OC1=C(C(C)=O)N(Cc2ccccc2)S(=O)(=O)c2ccccc21,inactive: -6.07%,
Cc1cc(NC(=O)c2ccc(F)cc2)ccc1-c1cc2ccccc2oc1=O,inactive: -5.46%,
Cc1ccc(Cl)cc1NC(=O)c1csnn1,inactive: 3.3%,
Cc1ccccc1CSc1ncc(Cl)c(C(=O)NCc2ccccc2)n1,inactive: -0.308%,
CCOC(=O)c1ccc(N2C(=O)c3[nH]nc(-c4ccc(C)cc4)c3C2c2ccc(O)cc2)cc1 (stereo unspecified),inactive: -11.7%,
CCC(=O)N1CCc2cc(Br)cc(S(=O)(=O)CCC(=O)Nc3ccc(CC)cc3)c21,inactive: 7.32%,
CCN(CC)S(=O)(=O)c1ccc(NC(=O)c2nn(C)c3c2CSc2ccccc2-3)cc1,inactive: 0.61%,
Cc1cccc(CC(=O)NC2CC(=O)N(c3ccc4c(c3)OCCO4)C2)c1 (stereo unspecified),inactive: -3.62%,
Fc1ccc(Nc2nc(SCc3cccc(F)c3)nc3ccccc23)cc1,inactive: -22%,
Cc1c(C(=O)NCc2ccccc2Cl)sc2nc3n(c(=O)c12)CCCC3,inactive: -1.72%,
COc1ccc(Br)c2c1-c1nc(NC(=O)c3ccc(F)cc3)sc1C2,inactive: 12.6%,
CCOC(=O)N1CCC(NC(=O)c2ccc3c(c2)N(Cc2ccccc2)C(=O)c2ccccc2S3(=O)=O)CC1,inactive: -9.62%,
Cc1ccc(C)c(NC(=O)CSc2nc(=O)n(CCN3CCOCC3)c3c2CCC3)c1,inactive: 4.39%,
CCC(=O)N1c2ccccc2CC1C(=O)NCCCN1CCN(c2cccc(Cl)c2)CC1 (stereo unspecified),inactive: 2.95%,
CC(C)Cn1cc(NC(=O)NCc2ccc(Cl)cc2)c2ccccc2c1=O,inactive: -0.438%,
COc1ccc(C(=O)CN2CCN(S(=O)(=O)c3ccc(F)cc3)CC2)cc1,inactive: -7.94%,
COCCCNc1nc2c(c(=O)n(Cc3ccccc3)c(=O)n2C)n1C,inactive: 12.4%,
Cc1ccc2c(c1)C(=O)OC(C(=O)Nc1ccc(C(=O)O)cc1)C2 (stereo unspecified),inactive: 8.87%,
O=C(Nc1ccc(Cl)cc1)c1ccc2oc(=O)n(Cc3ccccc3)c2c1,inactive: 25.6%,

Compound,"activity change, negative = cytotoxicity",Potency
CCOc1ccc(Nc2sc(C(=O)c3ccc(F)cc3)c(N)c2S(=O)(=O)c2ccc(C)cc2)cc1,inactive: 19.1%,
Cc1oc2ncn(CC(C)C)c(=O)c2c1C(=O)NCc1cccc(Cl)c1,inactive: -16.6%,
CCN(C(=O)CSc1nnc(-c2cc3occc3n2C)n1-c1ccccc1C)c1ccccc1,inactive: 0.509%,
O=C(CN1C(=O)COc2ccc(S(=O)(=O)N3CCOCC3)cc21)NCc1ccc(Cl)cc1,inactive: -2.86%,
CS(=O)(=O)c1ncc(Cl)c(C(=O)N2CCN(c3cccc(Cl)c3)CC2)n1,,active: 3.16 µM
COc1ccc(Cl)cc1NC(=O)c1ccc(CN2C(=O)CCn3nc(C)cc32)cc1,inactive: -19.1%,
COc1cc(Cl)c(C)cc1NC(=O)CNC(=O)Cn1ccc2ccccc2c1=O,inactive: 5.61%,
CC(C)Oc1ccc(CNC(=O)c2cc3cccc4c3n2CC(C)S4)cc1 (stereo unspecified),inactive: 2.05%,
CCc1ccc(-c2nc3c(c(SCc4ccccc4)n2)Cc2c(CO)cnc(C)c2O3)cc1,inactive: -5.62%,
Cc1ccc(Cn2c(C(=O)Nc3ccc(Cl)cc3)cc3sccc32)cc1,inactive: -9.23%,
CSc1ncc(C(=O)NCc2ccc(F)cc2)c(-c2ccccc2)n1,inactive: 9.68%,
CCCCN(CC)CCCNC(=O)Cn1nc(CC)n2c(cc3sccc32)c1=O,inactive: -10.3%,
COc1ccc2c(c1)c1c(c(=O)n(CCc3ccccc3)c(=O)n1Cc1cccc(C)c1)n2C,inactive: 10%,
CCOC(=O)c1ccc(NC(=O)CCCn2nc(C)c3sc4ccccc4c3c2=O)cc1,inactive: -2.8%,
CCOc1ccc(OCCOCCn2c(-c3ccc(Cl)cc3)nc3ccccc3c2=O)cc1,inactive: 8.86%,
Cc1cccc(-c2nc(SCCCOc3cc(C)c(Cl)c(C)c3)n3[nH]c(=O)cc3n2)c1,inactive: 5.17%,
COc1ccc(Nc2ncnc3c2cnn3-c2cc(Cl)ccc2C)cc1OC,inactive: -6.68%,
O=C(Cc1ccc(-c2ccccc2)cc1)NCCS(=O)(=O)N1CCN(c2cccc(Cl)c2)CC1,inactive: 3.24%,
CCCc1oc2ccc(NS(=O)(=O)c3ccc(OCC)cc3)cc2c1C(=O)OCC,inactive: -26.9%,
COC(=O)CC(=O)CSc1nc2cc(C(=O)NC(C)C)ccc2c(=O)n1CCc1ccccc1,inactive: 4.43%,
Cc1ccc(C(=O)OC2=C(C(=O)c3ccccc3)N(C)S(=O)(=O)c3ccccc32)cc1,inactive: -2.43%,
NC(=O)CN1C(=O)C2(SCC(=O)N2c2cccc(F)c2)c2ccccc21 (stereo unspecified),inactive: -3.2%,
COc1ccc(C2C(C(=O)Nc3ccc(C)cc3C)=C(C)Nc3nc(SC)nn32)cc1OC (stereo unspecified),inactive: 3.95%,
CC(C)C(=O)Nc1nnc(S(=O)(=O)N(C)Cc2ccc(F)cc2)s1,inactive: 17.6%,

Compound,"activity change, negative = cytotoxicity",Potency
CCOc1ccccc1NC(=O)C1CCCN(c2ncnc3onc(-c4ccc(F)cc4)c23)C1 (stereo unspecified),inactive: -23.5%,
COc1ccc(NC(=O)C2CCN(S(=O)(=O)c3cn(C)cn3)CC2)cc1Cl,inactive: 2.78%,
CC(=O)OCc1cnc(C)c2oc(=O)c(C(=O)Nc3cc(F)ccc3C)cc12,inactive: -8.49%,
O=C(c1ccc([N+](=O)[O-])cc1)N(Cc1ccco1)c1ccccn1,inactive: 5.55%,
COc1ccc(S(=O)(=O)Nc2ccc3c(c2)sc(=O)n3C)cc1Cl,inactive: -23.1%,
Cc1cc(C)cc(NC(=O)c2cn3c4c(ccc(Cl)c4c2=O)OC(C)C3)c1 (stereo unspecified),inactive: -2.18%,
CCCCn1c(=O)c2oc3ccccc3c2n(Cc2ccc(OC)cc2)c1=O,inactive: 6.13%,
Cc1ccc(-c2nnn3c2nc(NCCc2ccccc2)c2ccccc23)cc1,inactive: 15.5%,
CN(c1ncnc2c1c(-c1ccccc1)cn2-c1cccc(Cl)c1)C1CCCCC1,inactive: 1.66%,
Cc1cc2c(cc1S(=O)(=O)CCC(=O)N(C)C1CCCCC1)OCC(=O)N2,inactive: 5.52%,
COCCN(Cc1ccco1)C(=O)Cn1ncc2c([nH]c3ccccc32)c1=O,inactive: 0.904%,
Cc1ccc(C)c(C(=O)CSc2nc(-c3ccccc3)nc3c2CCCC3)c1,inactive: 8.49%,
Cc1c(Cl)cccc1NC(=O)N1CCC(CN2CCOCC2)CC1,inactive: 17.8%,
Cc1cccc(-n2c(=O)c3c(c4cc(C)ccc4n3C)n(C)c2=O)c1,inactive: 13.5%,
CCC(=O)N1c2ccccc2CC1C(=O)N1CCN(c2cccc(OC)c2)CC1 (stereo unspecified),inactive: 2.76%,
CCc1ccc(NC(=O)Cn2ccn(-c3ccc(OC)cc3)c(=O)c2=O)cc1,inactive: 4.15%,
Cc1ccc(N(C)C(=O)CC(C)S(=O)(=O)c2ccc3c(c2)NC(=O)CO3)cc1 (stereo unspecified),inactive: -1.05%,
COc1ccc(Cn2c(C(=O)O)c(CNC3CCCC3)c3ccc(C)cc32)cc1,inactive: 0.875%,
Cc1ccc(C)c(NC(=O)CSc2c(C)cnc3c2c(=O)n(C)c(=O)n3C)c1,inactive: 7.71%,
O=C(Cn1cnc2nc3c(cc2c1=O)CCCC3)N1CCN(c2cccc(C(F)(F)F)c2)CC1,inactive: -4.4%,
CCOc1ccc(OCC)c(NS(=O)(=O)c2c(C)[nH]c(=O)[nH]c2=O)c1,inactive: 17.8%,
CCOc1ccc(NC(=O)CSc2nc(-c3cccc(Cl)c3)nc3c2Cc2c(CO)cnc(C)c2O3)cc1,inactive: -3.95%,
Cc1ccc(C)c(NC(=O)Cn2ncc3c([nH]c4ccccc43)c2=O)c1,inactive: 2.31%,
COC(=O)c1cc2oc(C)cc2n1Cc1cc(C)ccc1C,inactive: -4.49%,

Compound,"activity change, negative = cytotoxicity",Potency
Cc1cccc(NC(=O)CC2Nc3cccc4cccc(c34)NC2=O)c1 (stereo unspecified),inactive: -1.59%,
Cc1ccccc1CNC(=O)Cn1c(C)c2cnn(-c3ccccc3)c(=O)c2c1C,inactive: 12.6%,
CCOC(=O)COc1ccc(/C=C(\C#N)c2nc3ccc(C)cc3[nH]2)cc1OC,,active: 8.91 µM
CCOC(=O)c1sc(N2C(=O)c3oc4ccccc4c(=O)c3C2c2ccc(C(C)(C)C)cc2)nc1C (stereo unspecified),inactive: 0.343%,
CCCCOc1ccc(C(=O)Nc2cc(-c3ccc(C)cc3)no2)cc1,inactive: 16.9%,
Cc1cccc(NC(=O)CSc2nc(-c3cccc(C)c3)nc3c2Cc2c(CO)cnc(C)c2O3)c1,inactive: 2.51%,
CC1(C)Cc2c(c(N3CCOCC3)nc3sc(C(=O)Nc4ccc(Cl)cc4)c(N)c23)CO1,inactive: 0.654%,
CCc1nc2ccc(C(=O)NCc3ccc(OC)c(OC)c3)cc2nc1CC,inactive: 6.81%,
Cc1ccc2c(c1)-c1onc(C(=O)N(C)c3cccc(C(F)(F)F)c3)c1CO2,inactive: 23.4%,
Cc1cccn2c3c(c(=O)nc12)C(c1cccc(F)c1)CC(=O)N3 (stereo unspecified),inactive: -2.43%,
CCOc1ccc(NC(=O)c2c(C)nn(-c3ccc(F)cc3)c2-n2cccc2)cc1,inactive: 7.05%,
Cc1cn2c(=O)cc(COc3cccc(NC(=O)c4ccc(C(C)(C)C)cc4)c3)nc2s1,inactive: -10.2%,
CCOC(=O)C1CCN(CC(=O)Nc2cc(C)c3c(=O)oc4ccccc4c3n2)CC1,inactive: 11.4%,
Cc1ccc(NC(=O)CN(C)S(=O)(=O)c2ccc3c(c2)n(C)c(=O)c(=O)n3C)cc1F,inactive: -16%,
Cc1nn(-c2ccccc2)c2nc(C3CC3)cc(C(=O)Nc3ccc(F)cc3)c12,inactive: 3.23%,
O=C(Nc1ccc(OCc2cc(=O)n3c4c(sc3n2)CCCC4)cc1)c1cccc(F)c1,inactive: 7.8%,
COc1cccc2cc(S(=O)(=O)c3ccc(F)c(C)c3)c(=O)oc12,inactive: 0.268%,
CCOC(=O)c1cc(-c2ccccc2)n(CCC(=O)NCc2ccccc2Cl)c1C,inactive: -18.1%,
COC(=O)c1sc2cccc(F)c2c1S(=O)(=O)N1CCN(c2cccc(OC)c2)CC1,inactive: -0.687%,
COc1ccc(Nc2nc3ccccc3nc2NS(=O)(=O)c2ccc(C)cc2)c(OC)c1,inactive: -0.322%,
Cc1nc2nc(SCC(=O)N(C)Cc3ccccc3)nn2c(C)c1Cc1ccccc1Cl,inactive: -1.34%,
Fc1ccc(N2CCN(c3nc4ccccc4c4nc(-c5cccnc5)nn34)CC2)cc1,inactive: 11.2%,
Cc1nnc(N2CCCC(C(=O)NCc3ccccc3)C2)c2nn(-c3ccccc3)c(C)c12 (stereo unspecified),inactive: -4.47%,
CCCCN(C)CCNC(=O)C1CCCN(S(=O)(=O)c2cccc3nsnc23)C1 (stereo unspecified),inactive: 1.64%,
